Experimental data as given in patent publication US10669314B2, “Polypeptide” (Affibody AB, priority 2014, dated 2020).

Columns and labels:
[1] = system: IL-6 trans-signaling dependent secretion of MCP-1 in HUVECs; test: HUVEC trans-signaling assay, MCP-1 production; assay type: cell-based, human; settings: fusions with ABD variant PP013, in the presence of HSA
Description: To address the trans-signaling pathway, a second assay was used. Herein, human umbilical vein endothelial cells (HUVECs) were stimulated with hIL-6 and soluble hIL-6Rα and the readout was the production of monocyte chemoattractant protein-1 (MCP-1). HUVECs (Lonza) were grown in EGM-2 bullet kit media (Lonza) and passaged in culture no more than eight times. Cells were grown until 75% confluence before use. Cells were detached using trypsin/EDTA (Lonza), resuspended and washed once in fresh medium. Next, cells were counted and dispensed into 96 well flat bottom plates at a density of 2×10^4 cells per well. Cells were cultured overnight at 37° C. in a humidified 5% CO2 atmosphere. […] The pre-mixed solutions with the test molecules and hIL-6/hIL-6Rα were then transferred to wells containing HUVECs, which were incubated for 24 h at 37° C. in a humidified 5% CO2 atmosphere. Cell free supernatant was collected after the incubation period and human MCP-1 levels were determined by sandwich ELISA using the MCP-1 Duoset ELISA development system (R&D Systems).
Half area 96-well ELISA plates were coated with anti-MCP-1 capture antibody (R&D Systems) at a concentration of 1 μg/ml. Plates were incubated overnight at 4° C., washed twice in tap water and blocked for 1 h in PBSC. […] The absorbance was measured at 450 nm using a microplate reader (Victor^3, Perkin Elmer).

[2] = system: IL-6 triggered serum amyloid-A (SAA) protein release; test: Serum Amyloid A (SAA) mouse model; assay type: in vivo; settings: Balb/c mice
Description: The IL-6 targeting Z variant Z06814 (SEQ ID NO:1512) and a control Z variant Z04726 (SEQ ID NO:1535) binding an irrelevant target, were cloned and produced in fusion with the ABD variant PP013 (SEQ ID NO:1554) as described in Example 2. Four groups of Balb/c mice (n=8) were injected subcutaneously (s.c.) with various doses (0, 0.025, 2.5 or 25 mg/kg body weight) of Z06814-ABD 9 h prior to intraperitoneal (i.p.) administration of hIL-6 at 5 μg/kg (R&D Systems). A fifth group of mice (n=8) received 25 mg/kg of Z04726-ABD. Two additional control groups of mice received PBS (n=4) and 25 mg/kg of Z06814-ABD (n=8), respectively, but no subsequent IL-6 injection. After 20 h, the blood was taken by cardiac puncture and serum was collected.
Serum was assessed for the content of murine SAA by ELISA (Tridelta) according to the manufacturer's instructions. In brief, diluted serum samples were added to SAA-precoated plates together with anti-SAA-HRP. The plates were incubated for 1 h and then washed four times. TMB substrate was added for 20 min and the reaction was stopped with stop solution. The absorbance was measured at 450 nm using a microplate reader (Victor^3, Perkin Elmer).

B1: Z06814-ABD: Z06814 (SEQ ID NO:1512) fused to PP013 (SEQ ID NO:1554), MGSSLQ-[Z]-VDGS-PP013 (protein)
chain: MGSSLQVDAKYAKEEQRAWREIHLLPNLTIEQMAAFIWKLLDDPSQSSELLSEAKKLNDSQAPKVDGSLAEAKEAANAELDSYGVSDFYKRLIDKAKTVEGVEALKDAILAALP
- inhibition of IL-6 mediated trans-signaling in HUVECs [1]: more potent than tocilizumab
- SAA protein levels versus dose ([2]; 0.025, 2.5 or 25 mg/kg s.c. 9 h before hIL-6 5 μg/kg i.p.): significantly lower SAA protein levels were measured in a dose-dependent manner
- SAA protein levels at the highest dose ([2]; 25 mg/kg body weight s.c. 9 h before hIL-6 5 μg/kg i.p.): as low as for animals given no hIL-6 injection
